Experimental data from PubChem BioAssay AID485344 (National Center for Advancing Translational Sciences (NCATS), 2010).
Screen size: about 340,000 compounds; about 6,900 (2%) were called active. Cut-off read from the data, not from the text of the source: active = inhibition above about 30%; inactive = below that, where a call was filed. The entries are a selection whose mix differs from that of the whole data set. The source gives no active or inactive call for entries shown without one.

target: D(2) dopamine receptor (Homo sapiens) (UniProt P14416); assay: HTS Assay for Allosteric Antagonists of the Human D2 Dopamine Receptor: Primary Screen for Antagonists; conditions: HEK293 TREx D2 cells, calcium flux, dopamine EC80; at 10 µM; stronger effect = higher value; note: 0% is about no effect
UniProt P14416, sequence (P14416 whole entry, looked up): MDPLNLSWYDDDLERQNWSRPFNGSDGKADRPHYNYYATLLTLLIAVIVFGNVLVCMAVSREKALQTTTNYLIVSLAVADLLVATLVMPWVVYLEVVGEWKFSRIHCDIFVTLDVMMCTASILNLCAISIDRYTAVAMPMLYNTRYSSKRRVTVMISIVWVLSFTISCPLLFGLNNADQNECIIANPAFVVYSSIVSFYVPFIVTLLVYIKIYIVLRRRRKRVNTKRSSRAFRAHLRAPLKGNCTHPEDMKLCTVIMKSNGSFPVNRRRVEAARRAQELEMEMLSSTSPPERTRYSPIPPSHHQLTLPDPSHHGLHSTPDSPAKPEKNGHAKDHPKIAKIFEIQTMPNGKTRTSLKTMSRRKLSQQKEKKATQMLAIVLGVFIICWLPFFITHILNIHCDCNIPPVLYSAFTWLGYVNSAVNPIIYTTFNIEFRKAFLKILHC
How it was run: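 Overnight-induced (tetracycline, 30 C) HEK293 T-REx cells carrying force-coupled D2 receive a no-wash calcium dye, then compound, then EC80 dopamine at 180 s; signals are read kinetically throughout.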

| SMILES | inhibition |
| --- | --- |
| Cc1c2cnn(CC(=O)N3CCCCC3)c(=O)c2c(C)n1Cc1ccc(Cl)cc1 | 6.15% |
| c1c(C2CCCCC2)n[nH]c1CN1CCCCC1 | active: 40.1% |
| CCn1cc(C(=O)NCc2ccccc2)c(=O)c2cc(S(=O)(=O)N3CCOCC3)ccc21 | 4.08% |
| O=C(Nc1ccc(F)cc1)c1cccc(N2CCCS2(=O)=O)c1 | -8.82% |
| CCOc1ccccc1NC(=O)C1CCN(S(=O)(=O)Cc2ccccc2)CC1 | 26.2% |
| Cc1cc(=O)n(C(C)C(=O)NCc2ccccc2Cl)c2c1c(C)nn2-c1ccccc1 (stereo not given) | -9.2% |
| CCOC(=O)C1=C(CNCc2ccccc2)NC(=O)NC1c1ccc(C)cc1 (stereo not given) | 14.4% |
| COc1cccc(-c2nc(SC(C(C)=O)C(=O)N(C)C)c3c(=O)n(C)c(=O)n(C)c3n2)c1 (stereo not given) | -4% |
| Cc1ccc(N2C(=O)[C@@H]3CSC(c4ccc(C(F)(F)F)cc4)N3C2=O)cc1 (stereo not given in full) | 16.9% |
| COc1ccc(-n2c(=O)c3c(C)c(C)sc3n(Cc3ccc(F)cc3)c2=O)c(OC)c1 | -9.48% |
| Cc1ccc(S(=O)(=O)N2CCCc3cc(NC(=O)c4ccc(C(F)(F)F)cc4)ccc32)cc1 | 10.9% |
| Cc1cc(N2CCN(C)CC2)nc2ccc(NC(=O)Nc3ccccc3Cl)cc12 | 21% |
| CCN(c1ncnc2c1c(-c1ccccc1)cn2-c1ccccc1)C1CCCCC1 | -9.88% |
| Cc1ccc(OCC(=O)OCc2cc(=O)n3nc(C4CCCCC4)sc3n2)cc1 | -11.8% |
| O=C(c1[nH]nc2c1CCc1ccccc1-2)N1CCN(Cc2ccc3c(c2)OCO3)CC1 | active: 70.5% |
| COc1ccc(N(C(=O)c2ccccc2C)S(=O)(=O)c2ccc3c(c2)n(C)c(=O)n3C)cc1 | -5.75% |
| CCOc1ccccc1NS(=O)(=O)c1c(C(=O)OC)sc2cccc(F)c12 | 14.5% |
| COc1ccc(OC)c(CCNC(=O)c2sc3nc4n(c(=O)c3c2C)CCCC4)c1 | 17.1% |
| CSCCC(NC(=O)C1CCCCC1)C(=O)Nc1ccc(F)c(Cl)c1 (stereo not given) | -12.7% |
| CCNc1c(NC(=O)c2ccccc2OCC)c(=O)oc2ccccc12 | 4.32% |

| SMILES | inhibition |
| --- | --- |
| COc1ccc(CCC(=O)NCCc2csc(-c3cccc(F)c3)n2)cc1 | -2.11% |
| Cc1cc(CN2CCC(n3nccc3NC(=O)c3ccccc3Cl)CC2)cc(C)c1O | active: 55.4% |
| COc1ccc(NC(=O)c2oc3ccc4c(c3c2C)C(=O)CC(C)(C)O4)cc1OC | -11.3% |
| COc1cc2c(cc1NC(=O)C(C)Oc1ccc(Cl)cc1Cl)oc1ccccc12 (stereo not given) | -2.93% |
| CCc1ccc(OCC2c3cc(OC)c(OC)cc3CCN2C(=O)Cc2ccc(OC)c(OC)c2)cc1 (stereo not given) | 0.824% |
| Cc1ccc(CCNC(=O)CCCn2nc(C)c3c(C)n(-c4ccc(C)cc4)nc3c2=O)cc1 | -10.7% |
| COc1cc(-c2nnc(SCC(=O)N(C)C3CCCCC3)o2)cc(OC)c1OC | 0.282% |
| COc1ccc(NC(=O)CCCN2C(=O)C(c3ccccc3)Oc3cccnc32)cc1OC (stereo not given) | 7.83% |
| COc1ccc(-c2noc(CSc3nnc(-c4ccncc4)n3-c3cccc(C)c3)n2)cc1OC | -3.09% |
| Cc1ccc(-c2cc(-c3coc4ccccc4c3=O)c3c(n2)-c2cc(Cl)ccc2OC3)cc1 | 2.2% |
| COc1ccccc1NC(=O)Cn1c(SCC(=O)NCc2ccccc2)nc2ccccc21 | 14.2% |
| CCOc1ccc(C(=O)C(CCC(CN(C)C)C(=O)c2ccc(OCC)cc2)CN(C)C)cc1 (stereo not given) | active: 37% |
| CC(=O)Nc1ccc(-c2nnc3n(CC(C)C)c(=O)c4ccccc4n23)cc1 | 9.83% |
| Cc1cc(C)c2c(n1)SCC(=O)N2CC(=O)Nc1c(C)cccc1C | -1.8% |
| Cc1cc(C)cc(NC(=O)Nc2c[nH]c(=O)[nH]c2=O)c1 | -13.5% |
| CC(=O)c1c(C)[nH]c(C(=O)Nc2nc(C)cs2)c1C | active: 32.9% |
| O=C(NC1(C(F)(F)F)N=C(c2ccccc2)N(C2CCCCC2)C1=O)c1ccccc1F (stereo not given) | -14.6% |
| COc1ccc(NS(=O)(=O)c2cc3c4c(c2)CC(=O)N4CCC3)cc1Cl | 1.94% |
| CNC(=S)N1CCC(c2nc3ccccc3s2)CC1 | active: 68.3% |
| COc1ccc(OC)c(CCNc2ncnc3onc(C)c23)c1 | 1.1% |

| SMILES | inhibition |
| --- | --- |
| CCn1c(CN2CCC(C)CC2)nc2cc(NC(=O)c3cccc([N+](=O)[O-])c3)ccc21 | 7.13% |
| Nc1nonc1-n1nnc(C(=O)N/N=C/c2ccc3c(c2)OCO3)c1-c1ccccc1 | active: 38.6% |
| Cc1ccc(CCNC(=O)c2ccc(CNS(=O)(=O)c3ccc(F)cc3)cc2)cc1 | -3.65% |
| CCOC(=O)C1=C(CS(=O)(=O)c2ccc(F)c(C)c2)NC(=O)NC1c1ccc(F)c(F)c1 (stereo not given) | -13.5% |
| CC(=O)N1CCc2c(sc(NC(=O)CSc3ccc(C)cc3)c2-c2nc3ccccc3s2)C1 | 9.04% |
| Cc1cccc(N2CCN(C(=O)c3cccc(-n4c(C)nc5cccnc54)c3)CC2C)c1 (stereo not given) | -5.41% |
| COC(=O)C1=C(C)NC2=C(C(=O)c3ccccc32)C1c1ccc(-c2ccc(C(=O)O)cc2)o1 (stereo not given) | active: 54.8% |
| Cc1c(C(=O)Nc2ccccc2Cl)oc2ccc(S(=O)(=O)N3CCCCCC3)cc12 | -16.9% |
| COC(=O)c1c(NC(=O)CCCOc2ccccc2C)sc2c1CCC2 | 3.21% |
| COc1ccc(CNS(=O)(=O)c2ccc3c(c2)C(C)(C)C(=O)N3C)cc1OC | -3.42% |
| Cc1ccc(C(C)C)c(OCC(=O)Nc2ccc(-c3nc4ncccc4o3)cc2C)c1 | 15.8% |
| Cc1ccc(C)c(NS(=O)(=O)c2ccc3c(c2)CCCN3C(=O)C2CCC2)c1 | 18.5% |
| COc1ccc(C(C(=O)NCc2ccccc2)N(C(=O)Cn2nnc3ccccc32)c2ccc(OC)cc2)cc1 (stereo not given) | -14.3% |
| O=C(c1ccc(NS(=O)(=O)c2ccc(F)cc2)cc1)N1CCC1 | active: 41.8% |
| Cc1ccc(Cn2c(=N)c(C(=O)NCc3ccco3)cc3c(=O)n4ccccc4nc32)cc1 | active: 82.9% |
| O=C(Cn1c(=O)c2sccc2n(CC(=O)Nc2ccc(Cl)cc2Cl)c1=O)NCCc1ccccc1 | -13.1% |
| Cc1ccc(NC(=O)N2CCc3c([nH]c4ccccc34)C2c2ccccc2F)c(Cl)c1 (stereo not given) | 1.08% |
| CCCN1Cc2cccc(C(=O)Nc3ccc(OC)cc3OC)c2C1=O | -1.34% |
| COc1cccc(C(=O)c2cn(CC(=O)Nc3cccc(Cl)c3C)c3nc(C)ccc3c2=O)c1 | -4.43% |
| COCCN1C(=O)c2oc3ccc(C)cc3c(=O)c2C1c1ccc(C(=O)OC)cc1 (stereo not given) | -17.8% |
